This experiment deals with NCI-H322M lung. Put plainly: DTP human tumour cell line panel, 48 h.

Structures are written as SMILES. “And” between values parts separate entries of the source, which are not always exact repeats. Equal values may be shown once.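 These data come from cells grown in 96-well plates and exposed to compound for 48 hours at five concentrations. At the GI50, growth is halved. TGI marks complete inhibition of growth.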

What is called GI50 is the concentration giving 50% growth inhibition. Broadly, the TGI is the concentration giving total growth inhibition. Read a high TGI as lower sensitivity of the cells. `CC/C=C\C[C@H](O)C/C=C1/C(=O)C=C[C@@H]1C/C=C\CCCC(=O)NC`: the GI50 was 2.39 µM and the total growth inhibition concentration (TGI) was 11.1 µM. On to `O=C(c1ccccc1O)c1[nH]c(Cl)c(Cl)c1-n1c(C(=O)c2ccccc2O)cc(Cl)c1Cl`, for which the GI50 was 1.71 µM and 0.941 µM; the TGI was 12.8 µM and 10.9 µM. As to `CC(=O)OC1OC(c2ccoc2)C[C@@]12C1CCC3O[C@]3(C)[C@]1(C)C[C@H](OC(C)=O)[C@H]2C` (stereo partly specified), the total growth inhibition concentration (TGI) is over 75 µM.

In turn, `COc1ccc(-c2nc3cc(C(F)(F)F)ccc3n2CC2CCCN3CCCCC23)cc1` (stereo unspecified) gave a TGI of 30.2 µM. As to `COCn1c(C)c(C)c2c(=O)oc(C)nc21`, the TGI was over 100 µM. Molecule `COc1cc2c(cc1O)C(c1cc(O)c(O)c(OC)c1)C(O)(C(=O)O)C(CO)C2O` (stereo unspecified) displayed a TGI of over 100 µM. Regarding `COc1ccc(/C(=N/O)c2cc(OC)c(OC)c(OC)c2)c(OC)c1N`, the GI50 is 4.69 µM and the TGI was over 100 µM. For the molecule `CN(C)/C=C/c1c2c(nc3ccccc13)C(=O)c1ccccc1C2=O`, the TGI was determined as 6.29 µM. `CC(C)(SCc1ccccc1)C(N)C(=O)O` (stereo unspecified) returned a TGI of over 100 µM.

As for `Cc1cnc(SCCN2CCN(C)CC2)nc1-c1cc2ccccc2s1`, the concentration for total growth inhibition (TGI) came out at 31.9 µM. Consider `CC(=O)NC1=C(Sc2ccc(Cl)cc2)C(=O)c2ccccc2C1=O`, for which the TGI was 27.9 µM.

Regarding `Cc1ccc(C)c2c(N=Nc3ccccc3[N+](=O)[O-])c(O)[nH]c12`, the TGI was over 100 µM. As to `CCCC#CCOC(=O)c1cc([N+](=O)[O-])cc([N+](=O)[O-])c1`, the TGI is over 100 µM. Still for that read-out and setting: to `Cc1nn(-c2ccccc2)c2nc3ccc(Cl)cc3c(-c3ccccc3)c12` belongs over 100 µM; to `CC(=O)N(C(C)=O)n1nc2c(n1)C(=O)c1ccccc1C2=O`, over 100 µM. For `COc1ccc(-c2nnc(Nc3nc(O)c(C4=c5cc(F)ccc5=NC4=O)s3)o2)cc1`, the GI50 is 25.8 µM and the TGI worked out at 84.5 µM.

`COC(=O)/C(=C\c1c(-c2ccccc2)[nH]c2ccccc12)S(C)(=O)=O`: the GI50 is 7.41 µM and the TGI was 39 µM. For the molecule `CC12CC(Sc3ccccc3N1)c1ccccc1O2` (stereo unspecified), the TGI was determined as 36.6 µM. With `Cc1cc(O)cc(C)c1/C=C/c1cncc(C(=O)OC(C)(C)C)c1`, the GI50 is over 25 µM and the TGI is over 25 µM. Turning to `Cc1cc(C)c2c(=O)cc(-c3ccc4ccccc4c3)[nH]c2n1`, the total growth inhibition concentration (TGI) was over 100 µM. For the molecule `Clc1ccc(N2CCC(N3CCCC3)CC2)cc1-c1nc2ccccc2[nH]1`, the GI50 was 33.5 µM and the concentration for total growth inhibition (TGI) is over 100 µM. Turning to `O=c1[nH]c(=O)n2n1C1C=CC2CC1`, the TGI is over 100 µM. `O=C1CCCC[C@H]1C(O)CC1CC(=O)N(c2ccccc2)C(=O)C1` (stereo partly specified): the TGI is over 100 µM.

Molecule `NC(=O)C1N=NSC1NC(=O)c1ccc([N+](=O)[O-])cc1` (stereo unspecified) had a TGI of over 100 µM. For the molecule `CCCCCSC1C2C(=O)C(Br)=CC13CCNc1c(O)c4c5c(c13)=[N+]2CCC=5C=N4` (stereo unspecified), the GI50 was 1.68 µM and the TGI amounted to 4.15 µM. `O[C@H]1[C@H](O)[C@@H](Cn2nnc(-c3ccccc3)c2-c2ccccc2)OCO[C@@H]1Cn1nnc(-c2ccccc2)c1-c1ccccc1`: the TGI amounted to 32.9 µM.

As to `Cc1ccc(C(=O)N=Nc2c(O)[nH]c3ccc(Cl)cc23)cc1`, the GI50 was over 50 µM and the TGI was over 50 µM.

These data come from PubChem BioAssay (NCI).
